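Tested at 5 concentrations; 48 h exposure; 96-well plates; endpoints linearly interpolated, else capped at highest concentration. Abbreviation: GI50, concentration required for 50% inhibition of growth.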 Not every entry of the source has a single result; some have several. They are shown here; other results are not. There may be further records. A record mostly stands for its own series of concentrations, not given here; a value can be the end of its range.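 TGI: total growth inhibition.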
Legend:
Experiment in all cases: NCI-60 cell line screen, 48 h
A498 renal = test system: A498 renal
BT-549 breast = test system: BT-549 breast
EKVX NSCLC = test system: EKVX NSCLC
HCT-116 colon = test system: HCT-116 colon
HOP-62 NSCLC = test system: HOP-62 NSCLC
HS 578T breast = test system: HS 578T breast
HT29 colon = test system: HT29 colon
LOX IMVI melanoma = test system: LOX IMVI melanoma
MOLT-4 leukemia = test system: MOLT-4 leukemia
OVCAR-3 ovarian = test system: OVCAR-3 ovarian
RXF 393 renal = test system: RXF 393 renal
SK-MEL-2 melanoma = test system: SK-MEL-2 melanoma
SN12C renal = test system: SN12C renal
SR leukemia = test system: SR leukemia
UACC-257 melanoma = test system: UACC-257 melanoma

SMILES	GI50 (A498 renal)	TGI (A498 renal)	TGI (BT-549 breast)	GI50 (EKVX NSCLC)	TGI (HCT-116 colon)	GI50 (HOP-62 NSCLC)	TGI (HS 578T breast)	TGI (HT29 colon)	TGI (LOX IMVI melanoma)	GI50 (MOLT-4 leukemia)	TGI (OVCAR-3 ovarian)	TGI (RXF 393 renal)	TGI (SK-MEL-2 melanoma)	GI50 (SN12C renal)	TGI (SR leukemia)	GI50 (UACC-257 melanoma)
CC(=O)O[C@H]1C(=O)[C@@]2(C)[C@H]([C@H](OC(=O)c3ccccc3)[C@]3([O-])C[C@H](OC(=O)[C@H]([O-])[C@@H](NC(=O)c4ccccc4)c4ccccc4)C(C)=C1C3(C)C)[C@]1(OC(C)=O)CO[C@@H]1C[C@@H]2[O-].[Fe+3]	37.5 nM and 585 nM	471 nM and 83.7 µM	479 nM and > 100 µM	168 nM and 1.95 µM	665 nM and 12.4 µM	161 nM and 12.3 µM	842 nM and > 100 µM	422 nM and 11.9 µM	7.14 µM and > 100 µM	204 nM and 13.8 µM	65 nM and 1.97 µM	452 nM and 11.6 µM	392 nM and 31.9 µM	13.9 µM and 220 nM	490 nM and > 100 µM	112 nM and 18.3 µM
CC1=Nc2c(ccc3c2C(=O)c2ccccc2C3=O)NC(c2ccncc2)C1 (configuration not stated)															933 nM and > 100 µM	

— PubChem BioAssay (NCI)
